Measured values published in the supplement of paper PMC3334620.
Over roughly 33,000 sequences, “E-score (-0.5 to 0.5)” has its median near -0.036; the highest 2% begin near 0.37. Some of the results follow.

Each sequence was assayed against T1, Yer064c (UniProt P40041) (assay: PBM E-score (8-mer binding enrichment) (E-score (-0.5 to 0.5)); higher = stronger / more preferred TF binding; most listed sequences are background and not binding sites). Details: protein concentration: 200 nM; construct: GST-full length.
T1 sequence: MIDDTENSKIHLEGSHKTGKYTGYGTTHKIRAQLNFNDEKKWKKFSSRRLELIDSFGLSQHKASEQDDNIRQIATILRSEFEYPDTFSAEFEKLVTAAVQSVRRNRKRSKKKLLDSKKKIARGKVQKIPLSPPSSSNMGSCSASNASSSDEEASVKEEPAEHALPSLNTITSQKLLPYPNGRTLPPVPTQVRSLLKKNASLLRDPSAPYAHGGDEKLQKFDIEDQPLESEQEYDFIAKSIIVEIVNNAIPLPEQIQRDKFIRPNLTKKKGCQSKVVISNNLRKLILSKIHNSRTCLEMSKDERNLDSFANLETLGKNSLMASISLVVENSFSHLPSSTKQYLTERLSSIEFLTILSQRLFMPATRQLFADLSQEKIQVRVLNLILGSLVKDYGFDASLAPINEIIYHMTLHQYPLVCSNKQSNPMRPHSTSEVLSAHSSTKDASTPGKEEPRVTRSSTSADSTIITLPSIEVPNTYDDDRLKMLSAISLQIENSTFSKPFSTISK
How it was run: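 Yeast transcription factors carrying a GST tag, as full-length proteins or DNA-binding domains, were produced by PURExpress in vitro transcription/translation. About 100-200 nM protein was applied to universal all-10-mer Agilent arrays, double-stranded by primer extension on fresh or once-stripped slides. Bound protein was detected with fluorescent anti-GST, and scans were normalised with masliner. The Universal PBM Analysis Suite gave each ungapped eight-base word, pooled with its reverse complement, an E-score, a modified Wilcoxon-Mann-Whitney statistic.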

Sequence	PBM E-score
AGTTACTA	0.244
CTGGCCTA	-0.25
GAGCAACA	-0.0949
GCGATAAA	-0.219
CGGCGAGC	-0.108
ACTGGGAG	-0.059
TGACGGAA	-0.0189
AGAGCCCT	-0.145
CCTGCAAG	-0.198
CGAAGACA	0.00765
AGGCACTG	-0.0757
CCACTGGC	-0.16
GCAAATTA	-0.184
AACGCGCT	-0.133
ATGGCCCG	-0.278
AAGGCTCA	0.186
AAGTTGCC	-0.227
GCTGACAC	0.00863
AGGGGTCA	0.0183
CATTCGTA	0.0407
TACTCTAA	-0.042
ACATCATG	0.0945
CAGGCGAA	-0.0848
AGCGGGGG	-0.231
AATAGTAA	0.0629

Sequence	PBM E-score
AAGTGACC	-0.00564
ATGTTGGC	-0.191
CGAAGGCA	-0.264
CTCTTGGC	-0.109
CGCGTCAC	-0.0553
CCTTTGAC	0.0859
CCAACTTA	-0.0408
GAAGCTGC	-0.0734
GCCATTGA	0.134
ATTTCAGG	-0.0143
AAGACTAA	0.442
GTTTAAAA	0.0456
AATGTGAG	0.123
TGATGGAA	0.125
ATGTCACA	0.095
AGCAGCCG	-0.0995
AGAATGCG	-0.17
ATCTCGCA	0.0436
TCAGCCAA	0.127
ATTAAACG	0.131
CGACTGCC	0.0625
GACCTTCA	-0.00212
ACAGCTCG	-0.158
ACAGGCGA	-0.00968
CTAGTAAA	0.142

Sequence	PBM E-score
CTGGCTTC	-0.154
ACGAAAAC	0.0697
CTATCGTC	-0.0974
CAAAACTG	-0.0183
ATCCCAAC	-0.0556
AAAGTCGT	0.258
AAGCGGCT	0.0683
ACATGCCG	-0.124
AAGGACGT	0.0902
TATGGGGA	0.00394
ATCATAGA	0.32
ATCGGTAC	-0.0379
TAGCGCTA	0.00933
AATCGAGC	0.126
ACACCAAG	-0.15
CTGACGGA	-0.0463
CCAAGGGA	-0.181
ACCGACGC	-0.118
AACTTCTG	-0.0661
CCGCGTAC	-0.0421
CCTTCACA	-0.0814
CACGGCGA	0.0377
TCCTGGAA	-0.12
ACTACTCC	0.0915
GATGTATA	-0.00143

Sequence	PBM E-score
CCCACACC	0.00154
GGTGTTCA	-0.0106
AGGTGACC	0.101
CGAGCTGA	0.129
AGCAGCAT	-0.265
ACTTTTGC	-0.0485
ACCTGTTA	-0.0514
CTCACCGA	0.185
GTACCTAC	-0.0236
AGACTAGC	0.251
CTAGCGTA	-0.0869
AAGTTGCT	-0.0746
CGCACTGA	-0.0165
ACAGGACA	0.047
ACCCGCCG	0.104
GCTAAGGA	-0.14
CGACAGCG	-0.182
TACGAATA	0.107
AGGCATTG	-0.171
GGACACTA	-0.179
ACACCCAA	-0.0135
AGTATCGA	0.118
ACGATCTC	-0.116
ATACGGAC	0.0167
AAGAAAAC	0.00662

Sequence	PBM E-score
ATATCGAA	0.0673
CCTGGTTC	-0.101
CTATGTCC	-0.227
AAGGTTCT	-0.118
CAGAAATC	0.0542
CAGACGTC	-0.139
CGCGAATA	0.0375
ACCCACAG	-0.0275
CGATTTTA	-0.169
CCGTGAAC	-0.0183
ACGATTTC	-0.0265
AGATCGAT	-0.00287
AGAAAATC	0.0604
CAGCGGGA	-0.161
AGTCTCTG	0.31
ATCAAGTC	0.24
ACACACCG	0.0236
AGGAAAAA	-0.0558
ACCCTAAA	-0.052
TATTAGAA	0.103
GCCGCAAA	-0.0538
GTATACTA	-0.00368
ACCATGGG	-0.154
GCAGGTAC	-0.0611
CCCATGGG	0.203

Sequence	PBM E-score
AGAAGCAT	-0.0539
AATACCTA	-0.0132
TCAAGAAA	0.166
CGTAATGC	-0.269
ATGCTACC	-0.17
CGCTACAG	-0.0846
AAAGCGAT	0.122
TCCGGTAA	-0.0282
GAGAAAAA	0.0131
CACCAAGG	-0.0597
GGAAAAAA	-0.106
CAAGACGC	-0.166
ATTCGATA	-0.00674
ATAGTTCA	0.0794
ATAATGCA	-0.151
AATCCCGA	0.0286
ACATTTCA	-0.0918
GCCGGAAC	-0.293
AGTTGCAT	-0.2
ACACCCGG	0.00016
CGTGGAAA	0.031
ACAGCAAA	0.0558
ACATACAT	0.0185
CTTGCTCA	-0.0925
AGAGCATA	-0.29

Sequence	PBM E-score
CGCAGCAC	0.0869
AATATGGG	0.0903
GCTCGGAC	-0.14
ATTCTTGC	-0.0519
CGTCTGCC	-0.356
GTCCACAC	0.0369
CTGGAATA	0.166
GATATATC	-0.0148
ACTGAGTA	0.28
AAGACCAG	-0.0791
AACTACGC	0.0819
GAGCGCCA	-0.19
CGTTTAGA	-0.0646
CACCGCAG	-0.14
ACGGCGCG	-0.125
ACTCCATA	0.206
CGTCGACC	-0.101
ATAGCCGC	0.0267
CACGTTGG	0.016
GTAGCAAC	-0.14
AACAGGCA	-0.132
CTTACACA	0.177
